Several values for one entry are separate records, joined by “and”; a condition that tells them apart may be missing. Identical values can stand only once.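 How tested: cells in 96-well plates exposed to compound for 48 hours at five concentrations. GI50 marks 50% less growth. TGI denotes the concentration required for complete inhibition of growth.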
The compounds below were run on NCI-H322M lung (assay: NCI anticancer screen, dose series, 48 h).

SMILES	TGI	GI50
CCOC(=O)C(NC(=O)c1cccc(Cl)c1)(N1CCN(c2cc3c(cc2F)c(=O)c(C(=O)O)cn3CC)CC1)C(F)(F)F (stereo not drawn)	86 µM	
O=[N+]([O-])c1cccc2c1[nH]c1c(-c3ccccc3)nccc12	6.99 µM	
Nc1ccc(N)c2c1C(=O)c1cccc([N+](=O)[O-])c1C2=O	6.61 µM	0.622 µM
O=C1NC2(CCCCC2)C2=C1CCCCC2	> 100 µM	
CCOC(=O)c1sc2nc(SC)nc3c2c1NCN3c1ccccc1Cl	> 100 µM	
Nc1nc(N)c(-c2ccccc2)c(C(=O)Nc2nccs2)n1	> 100 µM	
Nc1c(/C=C/c2cc3cc(C4=NCCN4)ccc3o2)[nH]c2cc(C3=NCCN3)ccc12	59.6 µM	
CC1=C2[C@@H](c3ccccc3)C3C=CC2(C=C3C(F)(F)F)N(C(=O)NC2CCCCC2)C1=O (stereo partly drawn)	> 100 µM	
Nc1cc(O)c2cc(N=Nc3ccc(N=Nc4ccc(N=Nc5ccc6cc(S(=O)(=O)O)cc(S(=O)(=O)O)c6c5)c5ccccc45)c4cc(S(=O)(=O)O)ccc34)c(S(=O)(=O)O)cc2c1	> 100 µM	
CCOC(=O)C1C(=O)C(=O)N2CCc3c([nH]c4ccccc34)C12 (stereo not drawn)	> 100 µM	
CC1=CC(=O)N2[C@H](OC[C@@H]2C(C)C)O1	> 100 µM	
CC(=O)CC(=O)N1CCOC1=O	> 10 µM	
CC(=O)OC/C=C/Cn1nc(Br)c(=O)[nH]c1=O	> 100 µM	
O=C1COc2cc3c(cc2N1)SCC(=O)N3	> 100 µM	
O=C(CCc1ccccc1)NCCc1ccc(O)c(O)c1	> 100 µM	
COc1cccc2c(Nc3ccc(C(=O)NCCN4CCNCC4)cc3)cc(-c3ccccc3)nc12	> 100 µM	51.7 µM
CC1SCCc2nc3ccccc3n21 (stereo not drawn)	> 100 µM	
CCc1n[nH]c(=O)n1-c1ccncc1	> 100 µM	
CCNC(=O)O/N=C1/C=C2CC[C@@H]3C(CC[C@@]4(C)C3CC[C@@H]4OC(=O)NCC)[C@@]2(C)CC1 (stereo partly drawn)	15.1 µM	
CC(C)=C[C@@H]1C[C@H](C)[C@H]2CC[C@H](C)[C@H]3C(=O)C(O)=C(C)C(=O)[C@]123	> 100 µM	
Cc1cc(C2(c3cc(C)c(O)c4ncccc34)OC(=O)c3ccccc32)c2cccnc2c1O	> 100 µM	4.27 µM
COc1cc2nccc(Oc3ccc(NC(=O)C4(C(=O)Nc5ccc(F)cc5)CC4)cc3)c2cc1OC	> 10 µM and 55.6 µM	> 10 µM and 4.85 µM
Cc1cccc2c1Oc1ncccc1C2NC(=O)CN(C)C (stereo not drawn)	> 10 µM	
COc1cc(-c2nn(-c3cccc(NC(=O)c4cccc(C(F)(F)F)c4)c3)cc2-c2ccncc2)ccc1Cl	> 50 µM	10.8 µM
COc1ccc2c3c(c4cc(OC)c(OC)cc4c2c1)C[C@H]1CCCCN1C3	1.37e-06 µM	

SMILES	TGI	GI50
NC1CC(n2ccc(=O)[nH]c2=O)OC1C(O)CO (stereo not drawn)	> 100 µM	
Nc1nc(Nc2cc(F)c(Cl)c(F)c2)cc(=O)[nH]1	> 100 µM	
CC(=O)OCC1OC(OC(C)=O)C(NC#N)C(OC(C)=O)C1OC(C)=O (stereo not drawn)	> 100 µM	
CCOC(=O)/C(=C/c1ccc[nH]1)P(=O)(OCC)OCC	> 100 µM	
O=C1CSC(c2cccc(Oc3ccccc3)c2)N1c1cc(Cl)ccc1Cl (stereo not drawn)	> 100 µM	
O=C(/C=C/N1CCN(c2cccc(Cl)c2)CC1)c1ccc(Cl)cc1	> 100 µM	30.5 µM
COc1cccc(OC)c1/C=N\N1C(=O)c2ccccc2C1=O	> 100 µM	
COc1ccc(/[N+]([O-])=C/c2ccccc2OC(=S)S)cc1	> 100 µM	
CN1CCN(Cc2ccc(NC(=O)c3cncc(C#Cc4cnc5cccnn45)c3)cc2C(F)(F)F)CC1	4.74 µM	1.57 µM
Brc1ccc2c(c1)-c1ccccc1C1=NCCN12	4.75 µM	1.39 µM
COC(=O)C1=C(C)N(NC(=O)Nc2ccccc2)C2(N)N(NC(=O)Nc3ccccc3)C(C)=C(C(=O)OC)C12C(=O)OC (stereo not drawn)	> 100 µM	
CC(C)S1=C2C(=O)CC(C)(C)CC2=Nc2ccccc21 (stereo not drawn)	> 100 µM	
CC1=C(C(=O)OC(C)(C)C)C(c2ccc([N+](=O)[O-])cc2)C(C(=O)OC(C)(C)C)=C(C)N1	41.3 µM	
CCCCC(C)(C/C=C/[C@@H]1[C@@H](C(O)CCCCCC(=O)OC)C(=O)C[C@H]1O[Si](C)(C)C(C)(C)C)O[Si](C)(C)C (stereo partly drawn)	> 100 µM	
Oc1ccc(CCNc2nc3ccccc3c3[nH]c4ccccc4c23)cc1	3.29 µM	1.56 µM
CO[C@@H](c1ccccc1)[C@H](O)[C@@](O)(c1ccccc1)P(=O)(OC)OC	> 100 µM	
CC(C)=NO.CC(C)=NO.CC(C)=NO.CC(C)=NO.[Ti]	> 100 µM	> 100 µM
COc1cc(O)c2c(=O)c(O)c(-c3ccc(O)c(O)c3)oc2c1	43 µM	
CCOC(=O)c1ccc(-c2cccs2)[nH]1	> 100 µM	
COc1ccc2c(C=O)c3n(c(=O)c2c1OC)CCc1cc2c(cc1-3)OCO2	> 100 µM	
COc1cc2c(cc1OCCCN1CCN(CCCn3c4ccccc4c4ccccc43)CC1)N=C[C@@H]1CCCN1C2=O	1.1 µM	0.129 µM
CC(=O)Oc1cc(OC(C)=O)c2c(c1C)CC[C@@H]1[C@@H]2CC[C@]2(C)[C@@H](OC(C)=O)CC[C@@H]12	31.3 µM	
CN1C/C(=C\c2ccco2)c2nc(N)nc(-c3ccco3)c2C1	> 100 µM	
CCCCCCCCCCCCCCCC(=O)NCC(OCC)OCC	> 100 µM	
Cc1nnc(N)s/c1=N/O	> 100 µM	

SMILES	TGI	GI50
COc1ccc(N=C(SSC(=Nc2ccc(OC)cc2)c2ccc([N+](=O)[O-])o2)c2ccc([N+](=O)[O-])o2)cc1	3.1 µM	
CN1Cc2c(ccc3c2OCO3)[C@@H]2[C@H](O)Cc3cc4c(cc3[C@@H]21)OCO4	> 100 µM	
C(/Cc1ccc2c(c1)OCO2)=N\NC1=NCCCCN1	> 100 µM	
CN1OC(CO)CC12C1CC3CC(C1)CC2C3 (stereo not drawn)	> 100 µM	
O=C(Nc1cccc(C(F)(F)F)c1)Nc1ccc(OCc2nnc(-c3ccccc3)o2)c(F)c1	57.4 µM	9.1 µM
COc1cc([C@H]2c3cc(O)c(OC)cc3C[C@]3(O)[C@@H]2CO[C@@H]3O)ccc1O	> 100 µM	
CC(C)[C@H](NC(=O)OCc1ccccc1)C(=O)N[C@H](/C=C/C(=O)OC(C)(C)C)CO	> 100 µM	
O=C(COC(=O)[C@H](C[Se][Se]C[C@H](NC(=O)c1ccc(Br)cc1F)C(=O)OCC(=O)c1ccc(F)cc1)NC(=O)c1ccc(Br)cc1F)c1ccc(F)cc1	4.82 µM	0.316 µM
O=C(c1ccccc1)n1c2ccc(Br)cc2c2nc3ccccc3nc21	> 100 µM	
Cn1c(=O)c(C#N)c(O)c2cc3ccccc3nc21	> 100 µM	
CCOC(=O)C1(NC(=O)OC(C)(C)C)CCc2[nH]oc(=O)c2C1 (stereo not drawn)	> 100 µM	
CC(C)(CCc1nc2ccccc2[nH]1)C(=O)O	> 100 µM	
O=C(Nc1cccc(C(F)(F)F)c1)Nc1cc(S(=O)(=O)NC2CC2)ccc1-c1ccsc1	21.3 µM	6.03 µM
O=P1(C(O)c2ccccc2)N(Cc2ccccc2)[C@@H]2CCCC[C@H]2N1Cc1ccccc1 (stereo partly drawn)	> 100 µM	
CC(=O)Nc1ccc(C(=O)NN2C(=O)CSC2c2ccccc2)cc1 (stereo not drawn)	> 100 µM	
CC(=O)OC1CCC2(C)C(=CCC3C4CC(CN5CC5)C(=O)C4(C)CCC32)C1 (stereo not drawn)	27 µM	13.9 µM
O=C(O)C12C3C4C1C1C2C3C41I (stereo not drawn)	> 100 µM	
Oc1[nH]c2ccccc2c1N=Nc1nc(-c2ccccc2)cs1	> 100 µM	
CCn1c(SC)nnc1-c1cc2c([nH]c3ccccc32)c(-c2cccc(O)c2)n1	44.7 µM	4.42 µM
O=NNc1nc(-c2ccccn2)nc2ccccc12	> 100 µM	
CCCCCCCCCCCC1=C(O)C(=O)C=C(O)C1=O	29.6 µM	
CC1CC2C(=O)N(c3ccccc3)C(=O)C2c2[nH]c3ccccc3c21 (stereo not drawn)	> 100 µM	
N=c1sc(N2CCOCC2)nn1CC(=O)c1ccccc1	> 100 µM	
NC(=O)NC(=O)C1CCC(=O)N1S(=O)(=O)c1ccc(Cl)cc1 (stereo not drawn)	> 100 µM	
Cn1c(=O)c(-c2c(Cl)cccc2Cl)cc2cnc(Nc3ccc(N4CCOCC4)cc3)nc21	4.69 µM	0.564 µM

SMILES	TGI	GI50
Cc1cc2c(SCc3ccccc3Cl)nc(N)nc2nc1C	> 100 µM	
CCOC(=O)Oc1ccc2[nH]c3c(C)cc(N)c(C)c3c2c1	> 100 µM	
NS(=O)(=O)C1CCCCC1C(=O)NNC(=O)C(=O)Nc1nc(=S)[nH][nH]1 (stereo not drawn)	> 100 µM	
COC(=O)c1ccccc1NCc1cc(O)ccc1O	> 100 µM	
CNc1nc(OC)c2c(n1)[n+](C)cn2C	> 100 µM	
Cc1cccc(Cc2cnc(NC(=O)CCCOc3ccc(Cl)cc3)s2)c1	> 100 µM	7.5 µM
COc1cc(/C=C/C(=O)c2c(-c3ccc(Cl)cc3)nc3sc(C)nn23)cc(OC)c1OC	> 100 µM	> 100 µM
COC(=O)N/N=C(\c1nc2ccc(Cl)cc2[nH]c1=O)C(O)c1ccc([N+](=O)[O-])cc1 (stereo not drawn)	> 100 µM	
COc1c(-c2nc3nc(N4CCN(C)CC4)ccc3[nH]2)cc(OC)c2c1nc(CCl)n2C	> 100 µM	
Nc1ccc2ncc(Nc3ccc(Cl)c(Cl)c3)nc2c1	> 100 µM	
COc1ccc(-c2cc(-c3ccc(Nc4ccnc5cc(C(F)(F)F)ccc45)cc3)nc(N)c2C#N)c2ccccc12	> 100 µM	
Cc1[nH]n(C(=O)c2ccc(Cl)cc2)c(=O)c1/C=C1\C(O)=CC(=O)c2ccccc21	> 100 µM	
Cc1ccc(C(=O)C2CC3(CCC2(O)c2ccc(C)cc2)CC(=O)Nc2ccccc2C3=O)cc1 (stereo not drawn)	> 100 µM	
Cc1c(N)nc(C2CC(=O)N2CC(N)C(N)=O)nc1C(=O)NC(C(=O)NC(C)C(O)C(C)C(=O)NC(C(=O)NCCc1nc(-c2nc(C(=O)NCCNCC(C)O)cs2)cs1)C(C)O)C(OC1OC(CO)C(O)C(O)C1OC1OC(CO)C(O)C(OC(N)=O)C1O)c1cnc[nH]1 (stereo not drawn)	> 100 µM	> 50 µM
O=C(Cn1c(-c2ccccc2)cc2ccccc21)N1CCOCC1	> 100 µM	
O=C(Nc1nc2ccc([N+](=O)[O-])cc2s1)c1cc([N+](=O)[O-])ccc1Cl	10.2 µM	
O=C(CO[N+](=O)[O-])OCC(=O)c1ccccc1	> 100 µM	
O=[N+]([O-])C1(CO)COC(CCc2ccccc2)OC1 (stereo not drawn)	> 100 µM	
C/C(=C\CNc1ncnc2c1ncn2CCC#N)CO	> 100 µM	
O=C1COc2c(CCNCCN(C(=O)CCNCCc3ccc(Cl)c(Cl)c3)C3CCCCC3)ccc(O)c2N1	29.8 µM	15.6 µM
O=C1C[C@@]23CCC4(CC2=CCC[C@H]3O1)OCCO4	> 100 µM	
CCc1nc2cc(F)ccc2[nH]c1=O	> 100 µM	
c1csc(-c2[nH]nc3c2CCc2ccccc2-3)c1	> 87.9 µM	13.7 µM
CN(C)c1ccc(/C=C2\CCCCCC2=O)cc1	> 100 µM	
CC(=O)Nc1ccc(C(=O)COc2cccc(/C=C3\CCc4ccccc4C3=O)c2)cc1	> 100 µM	76.1 µM
